# Over roughly 33,000 sequences, “E-score (dimensionless, -0.5 to 0.5)” has its median near -0.058; the highest 2% begin near 0.35. This is one part of the list.
# System: MvaT
# Experiment: PBM 8-mer E-score (mean of HK and ME arrays) (E-score (dimensionless, -0.5 to 0.5)); higher = stronger relative binding preference; most listed sequences are background and not binding sites
# Method in brief: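 Reported values are rank-based E-scores, taken as the mean of two universal arrays and parsed with a custom script. Each 8-mer score falls between -0.5 and 0.5. The arrays, ME and HK, were double-stranded 60-mers with a constant 25-mer primer region and a variable 35-mer region covering all 8-mers. They were probed, by an earlier protocol, with full-length P. aeruginosa MvaT carrying an N-terminal glutathione S-transferase fusion.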
row,Sequence,PBM 8-mer E-score
1,GAGCTACC,-0.307
2,GCTGTGCC,-0.235
3,CCAATAAG,0.183
4,ACGCCTTA,0.0578
5,GTATCCGA,0.0204
6,CCACGGAA,-0.115
7,GAAGTCGC,-0.22
8,TGCCCGAA,-0.139
9,GAGAAGCC,-0.351
10,CGTGAACC,-0.142
11,AGAGGATG,-0.0274
12,AACACAGG,0.0764
13,ACCTCACG,-0.223
14,CTAATGCC,-0.032
15,GGTATCGA,-0.0823
16,GCCTCTTA,-0.0973
17,GTAACAAA,0.205
18,CACTGACC,-0.15
19,CTCTCAAC,-0.159
20,AGTTCGAA,0.239
21,CTTCGGTA,-0.0193
22,AGACAAAT,0.166
23,CTTCGCTA,-0.089
24,TCAGAGAA,-0.032
25,CGATTACC,-0.0813

row,Sequence,PBM 8-mer E-score
1,AGGCTAAG,-0.0142
2,ACCGTATC,-0.173
3,CATATAAG,0.35
4,ATGCTGAA,0.0334
5,AAGCCATC,-0.28
6,ATCGCGCA,-0.00115
7,GAACACAA,0.105
8,GTCATCAC,-0.143
9,GCCTCTCC,-0.28
10,AATATTAG,0.394
11,TCCTTAGA,-0.0864
12,CACGTCCA,-0.161
13,AGACCTGA,-0.143
14,ATTAGTTA,0.335
15,CAGCCGAC,-0.18
16,TAGGGAGA,-0.211
17,AGGCGTGC,-0.207
18,ATTCAGTG,0.125
19,AGACTATC,0.0256
20,ACAGTAGG,-0.0165
21,AGCGCACG,-0.181
22,CGTCAGTA,-0.0255
23,AAAACGAG,-0.122
24,AGGTTTAA,0.15
25,GAGGGAGC,-0.357

row,Sequence,PBM 8-mer E-score
1,CCGGCGAG,-0.216
2,TGATATAA,0.353
3,ACTGCTTG,-0.0798
4,ACTACAGA,0.104
5,ATCCCCTG,-0.172
6,GCATGAAA,0.0774
7,CGCCCTGA,-0.181
8,CTGGTATC,-0.0511
9,ACGATCTG,-0.0774
10,AGCAGGGC,-0.242
11,GCACCGCC,-0.175
12,AAGACATT,0.154
13,GATCGGTA,0.00837
14,ACATGGAG,-0.0517
15,ATAATTAA,0.456
16,AGCATCAC,-0.113
17,ACAAGTGT,0.0313
18,GAGCTCCA,-0.28
19,AACTACAT,0.208
20,ACTTCTAT,0.228
21,CCTCCAGG,-0.333
22,CACAAACC,0.0517
23,ATGCACGA,-0.132
24,CTCAGGAC,-0.232
25,GACCGCAA,-0.0752

row,Sequence,PBM 8-mer E-score
1,GCGGTTCA,0.0149
2,GCAACCTA,-0.0596
3,CCCCCAAG,-0.341
4,AGCCGAAC,-0.112
5,CCAGCACG,-0.226
6,ACATTCCT,0.075
7,CATCTCTA,-0.0258
8,AAGAACCG,-0.0221
9,ACGAACAG,-0.0615
10,GCCAAAAA,-0.0483
11,ATAAACAC,0.296
12,CGCCGATC,-0.257
13,TGGGACAA,0.0643
14,GGCGTAAA,0.0143
15,ATTGAGAA,0.141
16,ACCGTCGA,-0.144
17,CGTCCATC,-0.223
18,CGAAGATC,-0.0561
19,AGTGGTAA,-0.0328
20,ACCTGTCG,-0.277
21,CGTCGAAG,-0.138
22,CTAAATAC,0.232
23,CTTGATGA,-0.0826
24,TGACTAAA,0.186
25,AAAAGGCT,-0.126

row,Sequence,PBM 8-mer E-score
1,ACTAGGTA,-0.0523
2,CCGACATA,-0.000617
3,TGGGCCCA,-0.248
4,TAACCAAA,0.131
5,GTACACAC,-0.0332
6,ACTACCTG,-0.0409
7,GAGTGGCA,-0.194
8,AGTCTCAA,0.0758
9,CAGCCACG,-0.218
10,ACAAGGCA,-0.0876
11,CCTTGGAA,-0.119
12,GTGGCGGA,-0.0799
13,AGGATACA,0.0408
14,AAACTCTT,0.15
15,GACAAGGA,-0.159
16,CTAGTGCC,-0.309
17,CCTGAGCA,-0.239
18,ACTACCAC,0.175
19,AGAAATCC,-0.0423
20,AGGGATTA,-0.0207
21,AATCCGTC,-0.0357
22,CGAAGAAG,-0.255
23,ACCCAAGC,-0.128
24,GAACGGGA,-0.0641
25,CCTTTCTC,-0.202

row,Sequence,PBM 8-mer E-score
1,CGTACCGA,-0.282
2,CAGTCATC,-0.118
3,CCACCTGC,-0.224
4,ATATATTC,0.454
5,ACAAACAA,0.171
6,CTGCATCC,-0.172
7,GTCCTTAA,-0.0237
8,AATCCGGC,0.0183
9,CCTAATTA,0.358
10,CCCCCATC,-0.234
11,ATAGTCTA,0.277
12,TCCGTCCA,-0.2
13,TAGGTCAA,0.0983
14,CGTAATAG,0.173
15,CGTCATGA,-0.165
16,ATACCGAG,-1.06e-05
17,ATTTGCCC,0.0401
18,ACTGGTAC,-0.138
19,CTCATTTC,-0.0714
20,CGTGAACA,0.00312
21,AATTAGGC,0.243
22,ATATGTGC,0.326
23,ACCCGAAA,-0.065
24,ACGAGGTC,-0.148
25,GGGTATTA,0.288

row,Sequence,PBM 8-mer E-score
1,GGCCGTAC,-0.216
2,CATAGAGG,-0.186
3,GCGGGTAA,0.131
4,AGCATTAT,0.245
5,AGGAATGC,-0.00138
6,AATCCGAG,-0.00394
7,AACAGCAC,-0.103
8,GCTGAGGA,-0.193
9,ACGGTTAG,-0.0976
10,TAACAGCA,0.251
11,ACGTACCA,-0.0602
12,AATCTCTC,-0.0667
13,GCATCGGA,-0.11
14,CGGATTCA,0.069
15,GGCCTTGA,-0.287
16,TCTTTCAA,0.206
17,CTTTGACC,-0.131
18,AGTCTTTG,0.155
19,GTAGTGGA,-0.105
20,ACCACTCG,-0.182
21,CCCTCCTC,-0.351
22,ACCCTAGC,-0.142

# From the supplement of paper PMC4466236
